In article PMC4336329 (PLoS ONE, 2015):
Out of some 310,000 compounds screened, about 2,200 (0.71%) showed an effect of 50% or more. Effects have a minus sign here. The list shows a part of the results.

biological target: human ether-à-go-go-related gene (hERG) potassium channel (human, UniProt Q12809); test: primary screen, population patch clamp on CHO cells stably expressing hERG
Sequence (Q12809 whole entry, looked up): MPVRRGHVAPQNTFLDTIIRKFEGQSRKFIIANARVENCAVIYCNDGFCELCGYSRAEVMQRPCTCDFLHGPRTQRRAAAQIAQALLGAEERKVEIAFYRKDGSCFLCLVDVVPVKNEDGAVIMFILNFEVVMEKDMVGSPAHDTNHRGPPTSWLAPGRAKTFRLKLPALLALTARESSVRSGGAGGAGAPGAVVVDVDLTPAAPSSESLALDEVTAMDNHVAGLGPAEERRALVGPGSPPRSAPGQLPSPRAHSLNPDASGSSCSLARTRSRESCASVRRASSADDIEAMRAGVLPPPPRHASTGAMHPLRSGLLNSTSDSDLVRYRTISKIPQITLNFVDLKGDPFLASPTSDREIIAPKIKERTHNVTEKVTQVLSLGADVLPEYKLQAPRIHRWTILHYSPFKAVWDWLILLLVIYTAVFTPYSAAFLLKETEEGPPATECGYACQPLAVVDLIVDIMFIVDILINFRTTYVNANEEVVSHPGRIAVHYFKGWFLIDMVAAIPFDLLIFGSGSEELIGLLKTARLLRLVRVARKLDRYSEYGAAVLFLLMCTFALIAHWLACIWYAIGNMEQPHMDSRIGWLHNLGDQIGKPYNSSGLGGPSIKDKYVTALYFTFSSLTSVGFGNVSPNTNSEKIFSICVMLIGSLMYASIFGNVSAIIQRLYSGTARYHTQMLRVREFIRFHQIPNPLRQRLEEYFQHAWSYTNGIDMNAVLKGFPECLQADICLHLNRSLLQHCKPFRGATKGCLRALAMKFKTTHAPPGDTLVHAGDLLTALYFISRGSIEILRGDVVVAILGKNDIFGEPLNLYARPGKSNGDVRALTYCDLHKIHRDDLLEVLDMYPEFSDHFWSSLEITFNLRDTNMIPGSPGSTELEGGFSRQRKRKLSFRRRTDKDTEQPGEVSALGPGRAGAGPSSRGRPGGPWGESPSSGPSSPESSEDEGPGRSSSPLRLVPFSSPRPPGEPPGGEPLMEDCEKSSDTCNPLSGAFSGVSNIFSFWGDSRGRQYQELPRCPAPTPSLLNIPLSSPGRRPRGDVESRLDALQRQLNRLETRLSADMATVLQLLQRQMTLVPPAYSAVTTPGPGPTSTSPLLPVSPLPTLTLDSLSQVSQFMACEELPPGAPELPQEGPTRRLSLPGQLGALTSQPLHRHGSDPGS

Row | Compound | hERG current change (%, negative = inhibition) at 1uM
1 | CC(NCc1ccc([N+](=O)[O-])cc1)C1COc2ccccc2O1.O=C(O)C(=O)O (stereo not drawn) | -34.4%
2 | CCn1ccc(C(=O)Oc2ccc(Cl)cc2)n1 | 7.05%
3 | O=C(Nc1cccc(Cl)c1)C1CCCN(S(=O)(=O)c2ccc(F)cc2)C1 (stereo not drawn) | -3.44%
4 | CCOc1ccccc1N(CC(=O)NC1CCCCC1)C(=O)CCC(=O)Nc1cc(C)ccn1 | 9.49%
5 | COC(=O)c1ccc(NC(=O)CSc2nnc(Cc3cccn3C)n2-c2ccc(F)cc2)cc1 | -1.64%
6 | CCc1nn2cc(C(=O)c3ccccc3O)cnc2c1-c1ccc(F)cc1 | 3.34%
7 | COc1ccc(-c2nnc3c4ccccc4c(C)nn23)cc1S(=O)(=O)N1CCN(CCO)CC1 | 4.64%
8 | COC(=O)[C@H](Cc1ccccc1)NC(=O)NCCc1ccc(S(N)(=O)=O)cc1 | 14.7%
9 | CNC(=O)Oc1cccc(-c2cn3cc(Cl)ccc3n2)c1 | 0.907%
10 | CN(C)S(=O)(=O)N1CCc2ccccc21 | 18.2%
11 | Cc1ccc(C)c(C(=O)Nc2cc(C)nn2-c2nc(C)cc(C)n2)c1 | 10.8%
12 | Cc1cccc2sc(N(CCN3CCOCC3)C(=O)CCS(=O)(=O)c3ccccc3)nc12.Cl | 6.94%
13 | COc1ccc(N(C(=O)c2ccncc2)S(=O)(=O)c2ccc3c4c(cccc24)C(=O)N3C)cc1 | 7.84%
14 | Clc1ccc(-c2nnc(N3CCOCC3)o2)cc1 | 7.41%
15 | O=C1Nc2ccccc2/C1=C/c1nc2ccccc2c(=O)n1-c1ccc(O)cc1 | 12.2%
16 | COc1ccccc1NS(=O)(=O)c1cc([N+](=O)[O-])ccc1N/N=C/c1sc(N2CCOCC2)nc1-c1ccccc1 | 21.2%
17 | Cc1cc(C(=O)CSc2nnc(-c3cccs3)o2)c(C)n1-c1ccccc1 | 15.5%
18 | Cc1cc(C(=O)Nc2ccc(C#N)cc2)on1 | 13.5%
19 | Nn1c(-c2ccccc2)cc(-c2ccccc2)cc1=O | 2.26%
20 | CC1=NN(C(=O)c2ccccc2Br)C(O)(c2cccnc2)C1 (stereo not drawn) | 12.2%
21 | CN(CC(=O)Nc1ccccc1C(=O)NC1CC1)Cc1cccs1 | 0.426%
22 | COc1ccc2c(c1)c(CCN1C(=O)c3ccccc3C1=O)cn2C(=O)c1ccco1 | 15.5%

Row | Compound | hERG current change (%, negative = inhibition) at 1uM
23 | CCn1c(=O)c(C(=O)Nc2ncccc2C)c(O)c2ccccc21 | 16.3%
24 | C=CCOc1ccc(/C=C/C(=O)OCC(=O)N(C)CC(=O)Nc2ccc(F)cc2)cc1 | 9.85%
25 | O=S(=O)(c1ccccc1)N1CCn2c(nc3ccccc32)C1 | 17.5%
26 | Cc1cccc(C(=O)NC2CCN(C(=O)Nc3ccccc3C)CC2)c1 | 8.16%
27 | Nn1c(SCC(=O)NC2CCCCC2)nnc1C1CC1 | 10.2%
28 | CCOc1ccc(C2c3c(oc4cc(C)c(C)cc4c3=O)C(=O)N2CCCN(C)C)cc1OC (stereo not drawn) | 4.1%
29 | O=S(=O)(NC1CCCC1)c1ccc(-n2cnnn2)cc1 | 14.5%
30 | CC1CCCN(C(=O)CN(c2ccccc2)S(=O)(=O)c2ccc(F)cc2)C1 (stereo not drawn) | 3.54%
31 | Cc1ccc(OCCNC(=O)CCC(=O)N2CCOCC2)cc1 | 13.1%
32 | Cc1ccc(-c2nnn(CC(=O)N(c3cnc4ccccc4c3)C(C(=O)NC3CCCC3)c3ccncc3)n2)o1 (stereo not drawn) | 13.3%
33 | CC(=O)NC(c1ccc(Cl)cc1)c1c(O)ccc2ccc(O)cc12 (stereo not drawn) | 13.3%
34 | CN(c1ccccc1)S(=O)(=O)c1cccc(C(=O)NCCCN2CCCC2=O)c1 | 4.15%
35 | CCOc1ccc(-c2c(C(=O)N/N=C/c3ccsc3)nnn2-c2nonc2N)cc1 | 10.4%
36 | Cc1c(Cl)cccc1NC(=S)N(CCN(C)C)C(C)c1ccccn1 (stereo not drawn) | 0.0607%
37 | Cn1cnnc1SCC(=O)NCCc1ccc(Cl)cc1Cl | 12.5%
38 | O=C(NC1=NCCS1)Nc1ccccc1 | 0.274%
39 | CC1CCCC(NC(=O)CCn2c(=O)oc3ccccc32)C1C (stereo not drawn) | -6.23%
40 | Cc1ccc(C(=O)N/C(=C\c2cccs2)C(=O)NCCc2ccccn2)cc1C | 9.59%
41 | Cc1cc(C)cc(C(=O)NN2CCN(C)CC2)c1 | 27.1%
42 | CC(=O)c1ccc(N/N=C2/CCCNC2=O)cc1 | 10.8%
43 | Cc1c(CCC(=O)O)c(=O)oc2c(C)c3occ(-c4ccc(Cl)cc4)c3cc12 | 11.7%
44 | O=C(Nc1ccc(NC(=O)c2cccs2)c(Cl)c1)c1ccco1 | -15.6%

Row | Compound | hERG current change (%, negative = inhibition) at 1uM
45 | COC(=O)c1ccc(/C=C/C(=O)c2ccc(OC)c(OC)c2)cc1 | 7.22%
46 | COc1cccc(-c2cc(C(=O)Nc3cccnc3Cl)no2)c1 | 17.5%
47 | CC(=O)N1[C@H](C)C=C[C@]1(Cc1ccccc1)C(=O)NCCc1c[nH]c2ccccc12 | 3.51%
48 | CCOc1cc(/C=N/NC(=O)C(O)(c2ccccc2)c2ccccc2)ccc1OC(=O)c1ccco1 | 5.45%
49 | CC(=O)Nc1ccc(NC(=O)C(C)OC(=O)CNC(=O)c2ccc(-c3ccccc3)cc2)cc1 (stereo not drawn) | 13.4%
50 | Cc1ccc(Cl)cc1NC(=O)c1ccccn1 | 1.33%
51 | O=C(CCc1nc2ccccc2s1)OCC(=O)c1ccccc1 | 6.88%
52 | COc1ccccc1OCCC(=O)OCC(=O)Nc1ncc(Cl)cc1Cl | 9.13%
53 | CC(=O)c1ccc(N2CCN(S(=O)(=O)c3cccc4nsnc34)CC2)cc1 | 19.2%
54 | CCS(=O)(=O)N1CCC(NC(=O)C(Cc2ccc(OC)c(OC)c2)NC(C)=O)CC1 (stereo not drawn) | 12.6%
55 | CC1Cc2ccccc2N1C(=O)C1CCCCN1S(=O)(=O)c1ccccc1 (stereo not drawn) | -2.36%
56 | Cc1nn(-c2ccccc2C(=O)O)c(=O)c2ccccc12 | -0.599%
57 | Cn1c(SCC(=O)Nc2ccc3[nH]c(=O)[nH]c3c2)nnc1-c1ccc(F)cc1 | 11.6%
58 | O=C(CSCc1n[nH]c(=O)[nH]1)NCCOc1cccc(Oc2ccccc2)c1 | 11.4%
59 | COc1ccc(CNC(=O)c2cc(=O)c3cc(C)cc(C)c3o2)cc1 | 11.4%
60 | Cc1cccc(CN2CCN(C(=O)c3ccccc3F)CC2)c1 | 7.67%
61 | CC1CC(C)CN(S(=O)(=O)N2CCC(C(=O)NCCc3ccccc3)CC2)C1 (stereo not drawn) | 10.5%
62 | Cc1ccc(NS(=O)(=O)c2cccc(C(=O)NCC3(N(C)C)CCCCC3)c2)cc1 | -9.54%
63 | COc1ccc(C(=O)C2CCCN(Cc3cnc(C)s3)C2)c(OC)c1 (stereo not drawn) | 0.445%
64 | C=C(C)C1CC=C(C)/C(=N/NC(=O)c2cccs2)C1 (stereo not drawn) | 13.8%
65 | COC(=O)c1ccc(N=Nc2ccccc2)cc1 | 4.68%
66 | CCOc1cc(/C=C2\C(=N)N3N=C(CC)SC3=NC2=O)ccc1OCCOc1ccc(NC(C)=O)cc1 | 12.2%

Row | Compound | hERG current change (%, negative = inhibition) at 1uM
67 | COc1ccc(/C=C/C(=O)c2cc(Br)ccc2O)cc1OC | 9.2%
68 | CC(=O)Nc1sc(C)c(C)c1C(=O)OCC(=O)Nc1ccccc1 | 6.49%
69 | COCCn1nnnc1C(C(C)C)N1CCCC(C)C1.Cl (stereo not drawn) | 11.5%
70 | Cc1cc(C)n(CC(O)COc2ccc(C(C)(C)C)cc2)n1 (stereo not drawn) | 5.99%
71 | COc1ccc(CNC(=O)c2sc3nc4c(c(C(F)(F)F)c3c2N)CCC4)cc1 | 9.64%
72 | CCOC(=O)CC(NS(=O)(=O)c1ccc(NC(C)=O)cc1)c1ccc(OCC)cc1 (stereo not drawn) | 0.0688%
73 | O=C1[C@@H]2C(c3ccccc3Cl)=NO[C@@H]2C(=O)N1Cc1ccccc1 | 12.6%
74 | COc1cc2c(cc1OC)CN(CC(=O)Nc1ccc(C#N)cc1)CC2 | -4.43%
75 | N#C/C(=C\c1cccnc1)C(=O)Nc1cccc2ccccc12 | 6.28%
76 | CC(=O)c1ccc(NC(=O)c2ccc(CSc3ccccc3)o2)cc1 | 9.33%
77 | O=C(NCCc1ccncc1)Nc1ccc(F)cc1 | 14.1%
78 | O=C(CSc1nc(Cc2ccccc2)nc2ccccc12)Nc1ccc2c(c1)OCCO2 | -0.608%
79 | CCCc1nc2c(c(=O)c3ccccc3n2C)c(=O)n1C1CCCCCC1 | 13.1%
80 | CCn1ncc(Br)c1C(=O)Nc1ccn(C23CC4CC(CC(C4)C2)C3)n1 | 16.4%
81 | COc1cc(Cl)c(S(=O)(=O)N2CC(C)OC(C)C2)cc1Cl (stereo not drawn) | 11.1%
82 | O=C(OCC(=O)C12CC3CC(CC(C3)C1)C2)c1ccccn1 | -6.29%
83 | Cc1ccc2nc(C)cc(C(=O)OCC(=O)Nc3c(C)n(C)n(-c4ccccc4)c3=O)c2c1 | 5.32%
84 | Cc1nc(C)c(C(=O)Nc2cccc(Cl)c2)o1 | -7.49%
85 | OCCN1CCN(C(=S)c2ccc(Cl)c(Cl)c2)CC1 | 3.47%
86 | COc1cc(/C=N/NC(=O)CNC(=O)c2ccncc2)ccc1O | 4.05%
87 | CCOC(=O)c1ccccc1NC(=O)CSc1nncn1C | 4.68%
